Measurements as given in the supplement of paper PMC7125110.
± gives the standard error. Variants at the background level are over-represented here.

B1: glmS ribozyme (parent)
chain: AUAAAAGCGCCAGAACUACAGAAAUGUAGUUGACGAGGAGGAGGUUUAUCGAAUUUUCGGCGGAUGCCUCCAAA

How the values were obtained:
Conditions in all cases: with glucosamine-6-phosphate
[1] = variants of: B1; experiment: self-cleavage kobs at 640 uM GlcN6P; higher = faster cleavage; RNA array
How it was run: (§1)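 In situ transcription by E. coli RNA polymerase produced barcoded ribozyme variants on sequenced MiSeq chips, and a hybridised Cy3 probe tracked them at 37 °C. Glucosamine-6-phosphate was flowed in at 40 μM to 10 mM in HEPES/KCl/Mg(OAc)2 buffer. kcat and KM were taken from weighted Michaelis–Menten fits of kobs values from exponential decay fits.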

[2] = variants of: B1; experiment: self-cleavage kobs at 160 uM GlcN6P; higher = faster cleavage; RNA array
How it was run: as §1

[3] = variants of: B1; experiment: self-cleavage kobs at 2500 uM GlcN6P; higher = faster cleavage; RNA array
How it was run: as §1

[4] = variants of: B1; experiment: self-cleavage kobs at 10000 uM GlcN6P; higher = faster cleavage; RNA array
How it was run: as §1

Variant	self-cleavage kobs at 640 uM GlcN6P [1] [s⁻¹]	self-cleavage kobs at 160 uM GlcN6P [2] [s⁻¹]	self-cleavage kobs at 2500 uM GlcN6P [3] [s⁻¹]	self-cleavage kobs at 10000 uM GlcN6P [4] [s⁻¹]
AUAAAAGCGCCUGAACUACAGAAAUGUAGUUGAGGAGGAGAAGGUUUAUCGAGUUUUCGGCGGAUGCCUCCAAA [A12U C34G G41A A53G]	< 1e-05	< 1e-05	< 1e-05	
AUAAAAGCGCUAGAACUACAGAAAUGUAGCUGACGAGGAGGAGGUUUAUCGAUUUUUCUGCGGAUGCCUCCAAA [C11U U30C A53U G59U]	< 1e-05			
AUAAAAGCGCGAGAACUACAGAAAUGUAGUUGACGAGGCGGAGGUUUAUCGAAUUUUCGGCGGAUGCCUCCAAA [C11G A39C]	< 1e-05			
AUAAAAGCGCCCGAACUACAGAAAUGUAGUUGACGUGGAGGAGGUUUAUCGGAUUUUCGGCGGAUGCAUCCAAA [A12C A36U A52G C68A]	< 1e-05			
AUAAAAGCGCUAGGACUACAGAAAUGUAGUUGAUGAGGAGGAGGUUUAUCGAAUUUUCGGCGGAUUCCUCCAAA [C11U A14G C34U G66U]	< 1e-05		< 1e-05	
AUAAAAGCGCCGGAACUACAGAAAUGUAGUUGACGAGGAGGAGGUGUAUCGAAUUUUCUGCGGAUGCCUCCAAA [A12G U46G G59U]	< 1e-05	< 1e-05	< 1e-05	
AUAAAAGCGCAAGAACUACAGAAAUGUAGAUGACGAGCAGGAGGUUUAUCGAAUUUUCGGCGGAGGCCUCCAAA [C11A U30A G38C U65G]	< 1e-05	< 1e-05	< 1e-05	< 1e-05
AUAAAAGCGCUAGAACUACAGAAAUGUACUUGACGACGAGGAGGUUUAUCGAAUUUUCGGCGGAUGCCUCCAAA [C11U G29C G37C]	< 1e-05			
AUAAAAGCGCUAGAACUACAGAAAUGUAGCUGACGAGGAGGAAGUUUAUCGAAUUUUCGGCGGAUGCCUCCAAA [C11U U30C G43A]	< 1e-05			
AUAAAAGCGCUAGAACUACAGAAAUGUAGUUGACGAGGAGGAGGAUUAUCGAAUUUACGGCGGAUGGUUUCAAA [C11U U45A U57A C67G C68U C70U]	< 1e-05		< 1e-05	
AUAAAAGCGCGAGAACUACAGAAAUGUAGUUGACGAGGCUGAGGUUUAUCGAAUUUUCGGCGGAUGCCUCCAAA [C11G A39C G40U]	< 1e-05	< 1e-05	< 1e-05	
AUAAAAGCGCGAGAACUACAGAAAUGUAGUUGACGUGGAGGAGGUUGAUCGAAUUUUCGGCGGAUGCCUCCAAA [C11G A36U U47G]	< 1e-05			
AUAAAAGCGCCUGAACUACAGAAAUGUAGUUGACUAGGAGGAGGUUUAUCGAAUUUUCGGCGGAUGCCUGCAAA [A12U G35U C70G]	< 1e-05			
AUAAAAGCGCGUGAACUACAGAAAUGUAGUUUACCAGGAGGAGGUUUAUCGAAUUUUCGGCGGAUGCCUCGAAA [C11G A12U G32U G35C C71G]	< 1e-05			
AUAAAAGCGCCUGCACUACAGAAAUGUAGUUGACGAGGAGGAGGUUAAUCGAAUUUUCGGCGGAUGCCUCCAAA [A12U A14C U47A]	0.000593 ± 0.00011	0.000117 ± 2.3e-05	0.00107 ± 0.00025	
AUAAAAGCGCGAGAACUACAGAAAUGUAGUUGACGAGGAGGAGGUUUAUCGAAUUUUCGUCGGUUGCCUCCAAA [C11G G60U A64U]	< 1e-05		< 1e-05	
AUAAAAGCGCCGGAACUACAGAAAUGUAGUUGACGAGGAGGAGGUUUAUCGAAUUUUCGUCGGAUGCCUCCAAA [A12G G60U]	< 1e-05	< 1e-05	< 1e-05	
AUAAAAGCGCUAGAACUACAGAAAUGUAGUUGACGAGGAGGAGGUUUAUCGAAUUAUCGGCGGAUACCUCCAAA [C11U U56A G66A]	8.42e-05 ± 1.7e-05	4.3e-05 ± 1.4e-05	0.000197 ± 4.1e-05	
AUAAAAGCGCAAGAACUACAGAAAUGUAGUUGACGAGGAGGAGUUUUGUCGAAUUUUCGGAGGAUGCCUCCAAA [C11A G44U A48G C61A]	< 1e-05			
